From the supplement of paper PMC11417369
± gives the standard deviation of the averaged measurements. The list shows a part of the results.

The sequences below were run on PfAP2-LT AP2 domain (GST-tagged) (assay: gcPBM binding intensity (ln(normalized median fluorescence intensity)); higher = stronger DNA binding).
In short: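 GST-tagged P. falciparum DNA-binding domains produced in E. coli were incubated for 1 h on an Agilent 4 × 180k array of primer-extended double-stranded 36-bp intergenic genomic probes with negative controls. Binding intensity is the highest Masliner-normalised natural-log median intensity across replicate spots of either probe orientation, with bound protein detected by Alexa488 anti-GST antibody at 488 nm.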

Row | Sequence | gcPBM binding intensity (ln)
1 | ACCATATATTAAAAAGTGCATTAAATATATAAATAT [GTGCAC_site9443] | 8.71 ± 0.52
2 | AATAGAAATTATATAAACATAAATGAATAAATAAAT [CACACA_negctrl_site1817] | 8.86 ± 0.46
3 | AATTAAATGGATAAATGTACATATGTGAATATATTT [XGTACX_site84] | 8.98 ± 0.54
4 | TTACACAAGGATAAAAACATATGTATGATTATATAT [CACACA_negctrl_site654] | 8.89 ± 0.47
5 | AAAATTTGAAAAAGGGGTACTTAATAAAAGTTTCAT [XGTACX_site932] | 8.52 ± 0.45
6 | ATACTGTATAGTCGCACACAAAAATATAAAATATTT [CACACA_site6004] | 9.28 ± 0.34
7 | ATAATTAACAAATACACACACACACCCAGACAAAAA [CACACA_site4445] | 10.2
8 | AAAATATTAAATATGTGTACATATAATAGTTCAATG [XGTACX_site5957] | 8.79 ± 0.46
9 | AAACAAATAAAAATATGTACACATTTTTTCATTATG [XGTACX_site5449] | 8.71 ± 0.43
10 | TTAAAAGAAAATAGGTGTACACATAATATATACATA [XGTACX_site7697] | 8.96 ± 0.67
11 | AATATGTCTTAAAAAAGTACATAAATTTTAACTTCA [XGTACX_site6670] | 8.35 ± 0.3
12 | TTTTTAATCATAATATGTACATATAAAAATGGTTTG [XGTACX_site3996] | 8.54 ± 0.41
13 | TGTGTATATATAAATACACACCAAATGTTAATATAT [CACACA_site8501] | 8.95 ± 0.4
14 | AACAATTAGAATAACGCATGCATTTATAATATAGAA [TGCATGCA_site595] | 9.02 ± 0.47
15 | TTTTTATTTTTTTATGCATGTGATGAAACGTGCCTA [TGCATGCA_site141] | 8.89 ± 0.51
16 | TAATAAATCAAATGCACACACACAAAAAAAAAAAAA [CACACA_site161] | 9.61 ± 0.38
17 | AAAAGGAGCAAATACAAAAAAATGAACAAAAAAAAA [CACACA_negctrl_site716] | 8.8 ± 0.61
18 | TTTTTCTTTGAATAAATACACACGAGAAATGAAAGT [CACACA_site1688] | 8.7 ± 0.38
19 | CATACCTATAGACACACACACACACGCACGCACAAA [CACACA_site6374] | 10 ± 0.18
20 | TTTTGTAATGCTTTTTTTTTTTTTTTTTTTTTTTTT [CACACA_negctrl_site932] | 8.64 ± 0.35
21 | TCATATATATATATATGTACATATTTATGTATGTAT [XGTACX_site6291] | 9.01 ± 0.3
22 | ACATAGATCATAGGTTGTACGAAGGTATCCTTTATT [XGTACX_site694] | 8.84 ± 0.38

Row | Sequence | gcPBM binding intensity (ln)
23 | ACTTTTTGAATGTTTGCACACAAATCTCATAATTTT [CACACA_site358] | 9.23 ± 0.4
24 | AAAAAAAAAAAAAAATGTACTTTTATTATTAATATA [XGTACX_site6357] | 8.33 ± 0.38
25 | AGTTCATATTTAAAAAGTACATATTTAAAAACTTCT [XGTACX_site4882] | 8.43 ± 0.4
26 | TTTGAACTTTTATATACACACATTATTATAGTATAG [CACACA_site6851] | 8.87 ± 0.41
27 | ATGCATATATTTATGTGTACATATATTTGTAGGGGG [XGTACX_site6063] | 10.2 ± 0.36
28 | ATATCGTTTTTAAATTGTACATTCACTATAGAATAA [XGTACX_site6442] | 8.57 ± 0.49
29 | TTTATTTTTCATTGGGGTACACAAGTTTATTTTTGA [XGTACX_site4262] | 8.71 ± 0.41
30 | TTCTTTGTTTTTTTTTTTTTTTTAAAAGATAATATT [XGTACX_negctrl_site381] | 8.28 ± 0.52
31 | ATATATTTATTTTGTGCACACAACGCAAACCTTTTA [CACACA_site3508] | 9.28 ± 0.49
32 | TATATCGCCTTCAAAAGTACTCATATAAAAAAAAAA [XGTACX_site7123] | 8.21 ± 0.42
33 | ATTTTTTCTTTTCGATGTACCCTTCTTATTCTTTAT [XGTACX_site3782] | 9.06 ± 0.61
34 | AGAATATATAAGTATACACACATATATATATATATA [CACACA_site201] | 9.91 ± 0.36
35 | ATATCGAAAATTTGGTGTACATTTTTATTTGTTCAA [XGTACX_site3094] | 8.74 ± 0.47
36 | GATATTACGTGTTTGGTATTTTTTGATGTTAATAGG [CACACA_negctrl_site105] | 8.93 ± 0.45
37 | TTATAAATATTCACTGTGCACTGATGGAATATAAAT [GTGCAC_site9739] | 8.67 ± 0.41
38 | TATAAAATAATTAAATGTACATAATATATAAAATAT [XGTACX_site6777] | 8.72 ± 0.5
39 | AACAAAGAGAAATAAACACACACAAAATAAAGAAAA [CACACA_site8704] | 9.46 ± 0.46
40 | ATTAATTAAAATAGTTGTACAATCAAAAAAACAAAA [XGTACX_site7660] | 8.85 ± 0.52
41 | TTTTTGTATGCTTCCCGACTACATTATGTCGTAAAT [GTGCAC_negctrl_site164] | 8.91 ± 0.49
42 | AAATTAAAAATAATTACACACATAGAAAAGTTATAT [CACACA_site7137] | 8.95 ± 0.43
43 | TTTTGCAAATATTACTGTACACAATCTCATATAATT [XGTACX_site2584] | 8.81 ± 0.35
44 | TTTTCAGAAAGACATGCATACAAAAATAAAAAAGAT [TGCATGCA_site814] | 8.89 ± 0.45
